Results published in PubChem BioAssay AID485313 (National Center for Advancing Translational Sciences (NCATS), 2010).
The campaign covered roughly 320,000 compounds. About 7,600 (2.4%) were called active. Inconclusive means that the source gave no clear call. Such entries were picked first, then a sample of the others. The call rests on the fitted dose curve; in most records, active means well fitted activation curve with a large enough effect; inconclusive means small, poorly fitted or top-dose-only effect; inactive means no such curve, though single readings can be large or run the other way. A potency beside an inconclusive call is a rough fit, not a confirmed value.

Assay: qHTS Assay for NPC1 Promoter Activators; further: nearly all actives have a fitted effect of over 60% in size;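 on activation: reporter is driven by a mutant NPC1 promoter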
Conditions: Huh7 NPC1 promoter luciferase reporter, 24 h; series mostly up to 9.22 µM
In short: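 Readout is luciferase luminescence, reflecting NPC1 promoter activation in stably transfected Huh7 cells after 24 h compound exposure at 37 °C in reduced-serum medium with 10% FBS.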
Potency means the concentration at half of the fitted maximal effect; tags describe the fitted curve by direction and shape.

Potency, inactive:
CCOC(=O)C1=C(C)N(c2ccc(OC)cc2)C(=O)/C1=C\c1cccs1
Nc1nc(Br)c2c(F)cccc2c1-c1ccccc1
Cn1c(=O)c(C(=O)COC(=O)c2cc(-c3ccco3)nc3ccccc23)c(N)n(CC2CC2)c1=O
COCCNC(=O)C(c1ccc(Cl)cc1)N(CCOC)C(=O)CCC(=O)Nc1nccs1 (stereo not given)
O=C(N/N=C/c1cn(-c2ccccc2)nc1-c1ccc(F)cc1)c1ccc2c(c1)OCO2
CCSc1nnc(NS(=O)(=O)c2ccc(OC)cc2)s1
Cc1ccc(C(=O)Nc2ccc(O)c(C(=O)O)c2)o1
Cc1ccc(C)c(Nc2nc(-c3cccnc3)cs2)c1
Cc1cc(C)c(S(=O)(=O)NCc2cn3ccccc3n2)c(C)c1
COCCn1c(SCC(=O)N(C)c2ccccc2)nc2c([nH]c3ccccc32)c1=O
CC(=O)c1ccc(N2CCN(C(C)C(=O)NC3CCCc4ccccc43)CC2)cc1 (stereo not given)
Cc1ccc(C(CNS(=O)(=O)c2ccc(F)cc2C)N2CCN(C)CC2)cc1 (stereo not given)
CC(=O)NC(CCS(C)(=O)=O)C(=O)Nc1nc(C)cs1 (stereo not given)
Cc1ccc(Nc2nnc(-c3ccc(N4CCOCC4)c([N+](=O)[O-])c3)c3ccccc23)cc1
COc1cccc(C(=O)Nc2ccccc2N2CCOCC2)c1
CCOc1ccc(Br)cc1C(=O)N/N=C/c1ccccn1
O=C(COc1ccc(S(=O)(=O)N2CCOCC2)cc1Cl)NCC1CCCO1 (stereo not given)
CCOc1cccc(C(=O)Nc2ccc(S(=O)(=O)Nc3cc(C)on3)cc2)c1
Cc1cccc(CNc2ccc(S(=O)(=O)N3CCCCC3)cc2)c1
CC(=O)Oc1cccc(NC(=O)c2cccc(C(=O)Nc3cccc(OC(C)=O)c3)c2)c1
CCN(CC)CCCN(C(=O)c1cccc(C)c1)c1nc(-c2ccc(OC)cc2)cs1
Cn1nc(C(F)(F)F)c(C(=O)Nc2cccc(Cl)c2)c1Cl
Cn1c(O)c(N=NC(=O)CNC(=O)c2ccccc2)c2ccccc21

Potency, active:
Brc1ccc2nc(N3CCCC3)sc2c1 2 µM
Cc1cc(C(=O)Nc2nc(C)c(C(=O)N(C)C)s2)ccc1[N+](=O)[O-] 0.355 µM
CC(=O)Oc1ccc(Cl)cc1/C=C/c1ccc2ccccc2n1 3.16 µM
CCOC(=O)NC(=O)CSc1nc(C)cc(C)c1C#N 2.51 µM
Cc1ccc(/C=N/Nc2ncnc3nc[nH]c23)cc1 2.82 µM
CCN(CC)S(=O)(=O)c1cc(C(=O)NC2CCCCC2)ccc1C 2.82 µM
COc1ccc(/C=C2\SC(=O)N(CCc3nnc(N)s3)C2=O)cc1 2.51 µM
O=[N+]([O-])c1ccc(-c2cnc3ccccc3n2)cc1 3.16 µM
c1ccc(CSc2ccc(-c3cccs3)nn2)cc1 3.16 µM
Cc1cccc(C)c1OCC(=O)Nc1cccc(C(=O)O)c1 1.41 µM
CC(OC(=O)c1ccc2c(c1)OCCO2)C(=O)c1ccccc1 (stereo not given) 0.708 µM
Cc1nc2ccc(NC(=O)c3cccs3)cc2s1 3.55 µM

Potency, inconclusive:
Cc1ccc(/C=C2\SC(=O)N(CCC(=O)N3CCN(C)CC3)C2=O)cc1 4.47 µM [activator, single point]
CCOc1ccc2nc(NC(=O)NC3CCCCC3)sc2c1 1.78 µM [activator, partial curve]
O=C(CSCc1ccc(F)cc1)N1CCOCC1 5.62 µM [activator, partial curve]
CCC(=O)Nc1ccc2nc(C3CC3)n(Cc3ccccc3)c(=O)c2c1 3.16 µM [activator, partial curve]
CC(=O)Nc1sc(C)c(C)c1C(=O)OCC(=O)N(C)C1CCS(=O)(=O)C1 (stereo not given) 1.26 µM [activator, single point]
O=C(CSc1ccccc1)Nc1ccc2c(c1)OCO2 2.51 µM [activator, partial curve]
CC(C)(C)c1ccc(OCc2ccc(C(=O)N3CCOCC3)o2)cc1 1.78 µM [activator, partial curve]
Cc1c(C)c2ccc(OCC(=O)Nc3cccnc3)c(C)c2oc1=O 1.26 µM [activator, partial curve]
NC(=O)c1c(NC(=O)c2ccccc2Cl)sc2c1CCC2 3.16 µM [activator, partial curve]
Cc1ccc2nc(-c3ccc(N4C(=N)SC5CS(=O)(=O)CC54)cc3)sc2c1 (stereo not given) 2.24 µM [activator, partial curve]
Oc1ccc(-c2nccc(-c3ccc(F)cc3)n2)cc1 5.62 µM [activator, single point]
Cc1ccc(-c2csc(N=C(N)N)n2)cc1 2.82 µM [activator, single point]
CC(=O)Nc1ccc(-c2cn3c(n2)SCC3)cc1 2.51 µM [activator, partial curve]
CCOC(=O)c1cc2c(nc1NC(=S)NCc1ccccc1)CCCC2 2 µM [activator, partial curve]
CC(C)(C)Cc1nnc(NC(=O)c2ccc([N+](=O)[O-])cc2)s1 3.16 µM [activator, partial curve]
Oc1ccc(Nc2nc(-c3ccc4ccccc4c3)cs2)cc1 6.31 µM [activator, partial curve]
O=C(COc1ccc2c(c1)OCO2)Nc1ccccc1F 5.62 µM [activator, single point]
O=C1c2ccccc2CN1c1ccccc1 5.62 µM [activator, single point]
CC(Cc1cccs1)NC(=O)NC1CCCCC1 (stereo not given) 2.51 µM [activator, partial curve]
CCOC(=O)CCc1c(C)c2ccc(OC3CCCCC3=O)c(C)c2oc1=O (stereo not given) 6.31 µM [activator, single point]
